Laboratory results: PubChem BioAssay AID504339 (National Center for Advancing Translational Sciences (NCATS), 2011)
Among all 390,000 compounds or so, about 17,000 (4.4%) were called active. The inconclusive results got no clear call from the source; some entries with a clear call stand among them for comparison. The call rests on the fitted dose curve; in most records, active means well fitted inhibition curve with a large enough effect; inconclusive means small, poorly fitted or top-dose-only effect; inactive means no such curve, though single readings can be large or run the other way. Where the call is inconclusive, the potency comes from a doubtful curve fit.

biological target: Lysine-specific demethylase 4A (Homo sapiens) (UniProt O75164); assay: qHTS Assay for Inhibitors of JMJD2A-Tudor Domain; conditions: AlphaScreen JMJD2A-Tudor / H3K4me3 peptide binding; series mostly up to 114 µM; further: nearly all actives have a fitted effect of over 50% in size
Chain of UniProt O75164 (O75164 whole entry, looked up, the tested form may be a part): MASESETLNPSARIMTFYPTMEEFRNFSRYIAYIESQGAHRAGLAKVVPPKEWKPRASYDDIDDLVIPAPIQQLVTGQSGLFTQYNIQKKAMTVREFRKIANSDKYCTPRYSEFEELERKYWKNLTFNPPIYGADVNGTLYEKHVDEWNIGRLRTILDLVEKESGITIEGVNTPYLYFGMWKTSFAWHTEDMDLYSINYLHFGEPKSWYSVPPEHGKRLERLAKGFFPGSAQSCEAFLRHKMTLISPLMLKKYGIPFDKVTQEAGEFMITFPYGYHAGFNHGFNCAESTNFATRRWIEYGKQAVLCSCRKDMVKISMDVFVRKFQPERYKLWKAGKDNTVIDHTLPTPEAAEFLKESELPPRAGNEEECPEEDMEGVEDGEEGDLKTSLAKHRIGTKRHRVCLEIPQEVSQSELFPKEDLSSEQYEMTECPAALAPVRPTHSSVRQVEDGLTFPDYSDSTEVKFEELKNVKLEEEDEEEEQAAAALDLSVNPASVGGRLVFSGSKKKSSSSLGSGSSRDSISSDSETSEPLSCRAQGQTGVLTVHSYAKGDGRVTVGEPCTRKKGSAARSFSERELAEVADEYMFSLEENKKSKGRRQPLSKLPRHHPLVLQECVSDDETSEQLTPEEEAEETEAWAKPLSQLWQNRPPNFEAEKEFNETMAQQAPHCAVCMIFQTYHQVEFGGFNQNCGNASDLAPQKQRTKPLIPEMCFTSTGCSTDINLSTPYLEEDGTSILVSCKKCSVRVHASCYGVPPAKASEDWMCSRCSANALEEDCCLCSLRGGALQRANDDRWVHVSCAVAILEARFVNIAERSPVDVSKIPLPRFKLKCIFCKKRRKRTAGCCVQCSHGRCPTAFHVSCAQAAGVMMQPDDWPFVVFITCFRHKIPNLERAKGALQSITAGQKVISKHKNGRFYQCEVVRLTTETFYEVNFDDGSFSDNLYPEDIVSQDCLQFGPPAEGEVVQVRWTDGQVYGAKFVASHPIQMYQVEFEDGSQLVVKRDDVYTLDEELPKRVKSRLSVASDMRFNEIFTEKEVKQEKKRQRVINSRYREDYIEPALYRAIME
Potency means the concentration at half of the fitted maximal effect; tags describe the fitted curve by direction and shape.

Structure (SMILES) | Potency
Clc1ccc(-c2csc(N/N=C/c3cccnc3)n2)c(Cl)c1 | inconclusive: 56.2 µM [inhibitor, partial curve]
Cc1cc(C)cc(C(=O)NCC(c2ccc(N(C)C)cc2)N2CCCC2)c1 (configuration not stated) | inconclusive: 50.1 µM [inhibitor, partial curve]
COc1ccc(NC(=O)c2cccnc2Nc2ccc(OC)cc2)cc1 | inconclusive: 56.2 µM [inhibitor, partial curve]
O=c1c2oc3ccccc3c2[nH]c(=S)n1-c1ccccc1 | inconclusive: 79.4 µM [inhibitor, single point]
CC(C)C(=O)Nc1ccc(-c2nnc(-c3ccccc3)o2)cc1 | inconclusive: 14.1 µM [inhibitor, full curve, poor fit]
COc1ccc(Cl)cc1NC(=O)CN(C)Cc1ccc(OC)c(OC)c1 | active: 1.26 µM
Cc1ccc(CSCc2ccc(C(=O)O)o2)cc1 | inactive
N=C1S/C(=C\c2ccco2)C(=O)N1c1ccc2c(c1)OCO2 | inconclusive: 10 µM [inhibitor, full curve]
CC(=O)N1CCN(c2ccc(NCc3ccc(-c4ccc(Br)cc4)o3)cc2)CC1 | active: 25.1 µM
Cc1cccc(Nc2nc(N)c([N+](=O)[O-])c(N3CCCC(C)C3)n2)c1 (configuration not stated) | active: 39.8 µM
COc1cccc(C2C(C(=O)c3cc4cccc(OC)c4o3)=C(O)C(=O)N2c2cc(C)on2)c1OC (configuration not stated) | inconclusive: 44.7 µM [inhibitor, partial curve]
CNC(=O)N(O)C1N(C)C(=O)N(CC(=O)OC)C1(C)C (configuration not stated) | active: 15.8 µM
C=C(CN(C)C)C(=O)c1ccc2c(c1)OCO2 | active: 14.1 µM
CCCNc1ncc2c(=O)[nH][nH]c(=O)c2n1 | active: 20 µM
CCOc1ccccc1NC(=O)CN1CCCCCC1 | active: 3.16 µM
Cc1cc(C)nc(NC2=NCC(=O)N2c2ccc(F)c(Cl)c2)n1 | inconclusive: 44.7 µM [inhibitor, partial curve]
O=C(CN1C(=O)CC(c2ccccc2)=Nc2ccccc21)Nc1ccc(Br)cc1 | inactive
COc1ccc(Br)cc1CNc1ccc(S(N)(=O)=O)cc1 | inactive
O=C(c1cccc(S(=O)(=O)N2CCCc3ccccc32)c1)N1CCN(c2ccccc2)CC1 | inconclusive: 17.8 µM [inhibitor, full curve, poor fit]
COc1cc(C)c(S(=O)(=O)n2nnc3ccccc32)cc1C | inconclusive: 20 µM [inhibitor, full curve]
C[C@@H]1NC(=O)N[C@@H]1CCCCCC(=O)O | active: 1 µM
CC(=O)c1ccc(OCC(O)CN2CCN(c3ccccn3)CC2)cc1 (configuration not stated) | inconclusive: 89.1 µM [inhibitor, single point]
Fc1ccc(-n2ncc3c(Nc4ccc5c(c4)OCCO5)ncnc32)cc1 | inactive
OC(COCC1COc2ccccc2O1)CN1CCCCC1 (configuration not stated) | inactive

Structure (SMILES) | Potency
COc1ccccc1-c1nc2cc(Cl)ccc2c(=O)n1O | inconclusive: 89.1 µM [inhibitor, single point]
Cc1ccc(C2=C/C(=C/c3cccs3)C(=O)O2)cc1 | inconclusive: 15.8 µM [inhibitor, full curve, poor fit]
CCOc1ccc(NC(=O)C(C)Sc2nnc(C)n2C)cc1 (configuration not stated) | inconclusive: 31.6 µM [inhibitor, single point]
CCOC(=O)C1CCCN(Cc2ccc(OC)cc2OC)C1 (configuration not stated) | active: 1.26 µM
CCn1c(SCc2ccc(C#N)cc2)nnc1-c1ccc(S(=O)(=O)N2CCCCC2)cc1 | inconclusive: 56.2 µM [inhibitor, partial curve]
CC(C)Oc1ccc(C(=O)N(Cc2ccc(N(C)C)cc2)C2CCS(=O)(=O)C2)cc1 (configuration not stated) | inactive
O=C(c1ccccc1)c1c2c(cc3sc4ccccc4[n+]13)-c1cccc3cccc-2c13 | inconclusive: 50.1 µM [inhibitor, partial curve]
CCc1ccc(NCc2cc3ccc(OC)cc3n(CC(=O)Nc3c(C)cc(C)cc3C)c2=O)cc1 | inactive
COc1ccc(C2=CSC3=C(C(=O)c4cccc(S(=O)(=O)N(C)C)c4)CCN23)cc1 | inconclusive: 79.4 µM [inhibitor, partial curve]
CC(C)N(C(=O)[C@H]1CC(CC(=O)NCc2ccco2)C(=O)N2CCc3c([nH]c4ccccc34)[C@]12C)C(C)C (some centres not stated) | inactive
Cc1cc(C)n2c(Br)c(CSc3nc4ccccc4o3)nc2n1 | inconclusive: 56.2 µM [inhibitor, partial curve]
O=C(/C=C/c1ccco1)NC(=S)Nc1ccc(O)c(-c2nc3ccccc3s2)c1 | inconclusive: 70.8 µM [inhibitor, single point]
O=C(CNC(=O)N1CC(=O)Nc2ccccc21)Nc1cc(Cl)ccc1Cl | inconclusive: 31.6 µM [inhibitor, full curve, poor fit]
COc1ccc(NC(=O)CN(C)C(=O)CSc2nc3ccccc3s2)cc1 | inactive
CCCOc1ccc2nc(C)c(CCC)c(SC(=N)N)c2c1 | inconclusive: 89.1 µM [inhibitor, single point]
CCCCOC(=O)Cn1c(=N)n(CCN(CC)CC)c2ccccc21 | inconclusive: 17.8 µM [inhibitor, partial curve]
C/C(=N/Nc1ccc(C(=O)O)cc1)c1ccc2c(c1)Nc1ccccc1S2 | inconclusive: 56.2 µM [inhibitor, partial curve]
O=C(CSc1nccc(=O)[nH]1)NCc1ccco1 | inconclusive: 89.1 µM [inhibitor, single point]
Nc1ccccc1Nc1ccccc1 | active: 44.7 µM
CC1CCCN(CCCNC(=O)c2ccc3c(c2)N(Cc2ccc(Cl)cc2)C(=O)c2ccccc2S3(=O)=O)C1 (configuration not stated) | inconclusive: 56.2 µM [inhibitor, partial curve]
CCOC(=O)C1CCN(C(c2ccccn2)c2c(C)[nH]c3ccccc23)CC1 (configuration not stated) | inconclusive: 89.1 µM [inhibitor, single point]
CC1CCC/C(=C\Nc2ccc3c(c2)OCO3)C1=O (configuration not stated) | active: 100 µM
O=C(CCCN1C(=O)/C(=C/c2ccccc2Cl)SC1=S)N1CCCC1 | active: 14.1 µM
COc1cc(C(=O)NC(=S)N(CCc2ccccc2)CCc2ccccc2)cc(OC)c1OC | inactive

Structure (SMILES) | Potency
CCOC(=O)C1=C(CS(=O)(=O)c2ccc(F)c(C)c2)NC(=O)NC1c1ccc(O)c(O)c1 (configuration not stated) | inactive
COc1cc2[nH]c3c(c2cc1OC)CCN1CCCC[C@@H]31 | inconclusive: 79.4 µM [inhibitor, partial curve]
CCN=C1S/C(=C\c2cc(Br)c(O)c(OC)c2)C(=O)N1CC | inactive
COc1ccc(/C=C2/SC(=S)N(NS(=O)(=O)c3ccc(C)cc3)C2=O)cc1 | inconclusive: 56.2 µM [inhibitor, partial curve]
CCOC(=O)c1c(C)[nH]c(C(=O)CN2C(=O)NC(CC)(c3ccccc3)C2=O)c1C (configuration not stated) | inconclusive: 79.4 µM [inhibitor, partial curve]
O=C(/C=C/c1ccco1)NC(=S)Nc1ccc(N2CCCC2)cc1 | inconclusive: 10 µM [inhibitor, full curve]
COc1ccc(CCN2CC(C#N)=C3c4cc(OC)c(OC)cc4CCN3C2)cc1OC | inconclusive: 39.8 µM [inhibitor, full curve]
CC1CCC(NC(=O)c2ccc(CS(=O)(=O)c3ccc(Cl)cc3)o2)CC1 (configuration not stated) | inactive
COCCNC(=O)c1c[nH]c2ccc(S(=O)(=O)N(C)c3ccc(C)c(C)c3)cc2c1=O | inactive
O=C(Nc1ccc2nccnc2c1)c1ccco1 | inconclusive: 28.2 µM [inhibitor, full curve, poor fit]
CCC(CO)NC(=O)c1cc2c(s1)CCC2 (configuration not stated) | inactive
COCCNC(=O)CN1C(=O)c2cccnc2Sc2ccccc21 | inactive
CCC(C)n1c(=O)c2sccc2n2c(CCCC(=O)NCc3ccccc3Cl)nnc12 (configuration not stated) | inactive
FC(F)(F)c1cccc(NC(=S)Nc2cccc(NC(=S)Nc3cccc(C(F)(F)F)c3)n2)c1 | inconclusive: 28.2 µM [inhibitor, full curve]
Cc1ccc(-c2ccc(CCC(=O)O)n2-c2ccc(O)cc2)cc1 | inconclusive: 56.2 µM [inhibitor, partial curve]
CCOc1ccc(-c2nc(S(=O)(=O)c3ccccc3)c(NCc3cccnc3)o2)cc1 | inconclusive: 12.6 µM [inhibitor, partial curve]
Cc1ccc(C(=O)c2sc(Nc3ccccc3)c(S(=O)(=O)c3ccccc3)c2N)c(C)c1 | inconclusive: 12.6 µM [inhibitor, full curve]
Cc1nc(C(F)(F)F)c(C(=O)N/N=C(\N)c2ccccn2)s1 | active: 79.4 µM
COc1ccccc1CNC(=O)c1ccc2[nH]c(C)c(C)c2c1 | inconclusive: 50.1 µM [inhibitor, partial curve]
COc1ccc(-c2sc3cc4c(cc3c2-c2ccc(OCCN3CCOCC3)cc2)OCO4)cc1 | inconclusive: 7.94 µM [inhibitor, full curve, poor fit]
COc1ccc(OCC(O)CN2CCCCCC2)cc1 (configuration not stated) | active: 3.98 µM
CCN1/C(=C/c2ccc3cc(C)ccc3[n+]2CC)Sc2ccc3sccc3c21 | inconclusive: 3.16 µM [inhibitor, partial curve]
Cc1ccc(C(=O)N/C(=C\c2ccc(-c3cc(Cl)ccc3Cl)o2)C(=O)NCc2cccnc2)cc1 | inconclusive: 79.4 µM [inhibitor, partial curve]
CCc1nc(NCCN2CCOCC2)c(C#N)c2c1CCCC2 | inconclusive: 89.1 µM [inhibitor, single point]
